Laboratory results: PubChem BioAssay AID1508624 (National Center for Advancing Translational Sciences (NCATS), 2021)
Screen size: about 48,000 compounds; about 120 (0.25%) were called active. About 4% were inconclusive and are not listed. The call rests on the fitted dose curve; in most records, active means well fitted activation curve with a large enough effect; inconclusive means small, poorly fitted or top-dose-only effect, or another doubt; inactive means no such curve, though single readings can be large or run the other way. Some of the results follow.

Test: Primary qHTS for Identification of Small Molecule Activators of Huntingtin-Antisense Promoter Activity; further: nearly all actives have a fitted effect of over 55% in size
Conditions: HEK293 HTT-AS promoter firefly luciferase reporter (activity 0% = vehicle and -100% = no light), 24 h; series mostly up to 57.5 µM; activity change, positive = activation: at the top concentration
Summary of the method: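 Luminescence was read after Dual-Glo reagent and a 10 min room-temperature incubation. Values were normalized to vehicle (0% activity) and zero RLU (-100% activity). Reporter HEK293 cells had been exposed to compounds (up to 57.5 uM final) for 24 h.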

Activity change, positive = activation, inactive:
Cc1cccc(C(=O)Nc2ccc(C(=O)OCc3cc(=O)n4nc(CC(C)C)sc4n3)cc2)c1 11.9%
COc1cccc(CNC(=O)CCc2c(C)c3cc4c(C)coc4c(C)c3oc2=O)c1 -24.3%
COc1ccc(OCC(=O)N2CCN(C(=O)c3cccc(OC)c3)CC2)cc1 1.77%
CCc1ccccc1NC(=O)CCS(=O)(=O)c1cccc2nonc12 14.6%
Cc1ccc(-n2ncc3c(N4CCN(C)CC4)ncnc32)cc1C -16.9%
COc1ccccc1NC(=O)c1sc2nc(C)c(C(=O)Nc3ccc(C)cc3C)c(-c3ccc(C)o3)c2c1N -12.1%
CCN1CCN(CCCNC(=O)c2ccc3nc(Cc4ccccc4)oc3c2)CC1 -4.64%
COc1ccc(N2CCN(C(=O)c3cc(S(=O)(=O)N4CCC(C)CC4)cn3C)CC2)cc1 -20.2%
CCN(C(=O)C1CCN(c2ncnc3c2nc2n3CCCCC2)CC1)c1cccc(Cl)c1 -22.4%
Cc1cccc(N2CCN(c3nc4ccc(C)cc4n4cnnc34)CC2C)c1 (stereo unspecified) 1.7%
COc1ccc(-n2ccnc(NCc3ccc(C)cc3)c2=O)cc1OC -13%
O=C(NCC(c1ccc2c(c1)OCO2)N1CCOCC1)c1c(F)cccc1F (stereo unspecified) 1.6%
CCOc1ccccc1N(CC)C(=O)c1noc2c1COc1ccc(C)cc1-2 -32.8%
CCn1cc(C(=O)NCCc2ccc(Cl)cc2)c(=O)c2cc(S(=O)(=O)N3CCC(C)CC3)ccc21 0.566%
O=C(c1ccc(F)cc1)n1nc(-c2ccccc2)nc1NCc1ccco1 17.4%
O=C(NC1CCCCC1)c1ccc2c(c1)N(Cc1ccc(Cl)cc1)C(=O)c1ccccc1S2=O (stereo unspecified) -26.5%
Cc1cccc(NC(=O)CCNS(=O)(=O)c2cccc3nsnc23)c1C -12.4%
COc1ccc(N(CC(=O)N2CCN(c3ccccc3F)CC2)S(=O)(=O)c2c(C)n[nH]c2C)cc1 -16.6%
O=C(c1ccc(CS(=O)c2ccccc2Cl)o1)N1CCN(c2cccc(Cl)c2)CC1 (stereo unspecified) -50.2%
CC(CNC(=O)CCCn1c(=O)c2cccn2c2cccnc21)c1ccccc1 (stereo unspecified) -22%
COC(=O)c1ccc(O)cc1 0.403%
COc1cccc(CNC(=O)c2ccc(NC(=O)N3CC(C)Sc4ccccc43)cc2)c1 (stereo unspecified) -15%
Cc1ccccc1Nc1c(-c2ccncc2)nc2ccc(Cl)cn12 6.82%
COc1ccc(CCNC(=O)c2ccc(CNS(=O)(=O)c3ccccc3)cc2)cc1OC -15.6%
COc1cc(NC(=O)c2ccc(NC(=O)N3CCSc4ncccc43)cc2)cc(OC)c1 10.5%
CC(C)(C)OC(=O)N1CCC(c2c(C(=O)N3CCN(C(=O)c4ccco4)CC3)cnn2-c2ccccc2)CC1 -3.05%
Cc1cccc(CCNC(=O)C2CCCN(S(=O)(=O)c3ccc4c(c3)oc(=O)n4C)C2)c1 (stereo unspecified) -28.2%
CCOc1cccc2sc(N(CCN(CC)CC)C(=O)c3ccco3)nc12 -11.4%
Cc1ccc2nc(Cl)c3cc(C(=O)NC4CCCCCC4)sc3c2c1 -14.4%
CCC1CN(C(=O)Nc2ccc(C(=O)O)cc2)c2cc(Cl)ccc2O1 (stereo unspecified) -6.29%
O=C(CSc1cn(CC(=O)N2CCCC2)c2ccccc12)Nc1cc(C(F)(F)F)ccc1Cl -32.5%
Cc1cccc(NC(=O)Cc2csc(COc3cccc(C)c3)n2)c1 12.7%
Cc1cccc(C(=O)NCC(=O)OCc2cc(=O)n3nc(C4CC4)sc3n2)c1 -7.08%
Cc1cc(C)cc(NC(=O)CCc2c(C)nc3c4cccnc4nn3c2C)c1 -12.7%
CCOC(=O)Cn1c(=O)n(C2CCCCC2)c2nc(-c3cccc(OC)c3)nc(C(N)=O)c21 -0.384%
CCc1nn2c(=O)c(S(=O)(=O)Nc3cccc(F)c3)c(C)nc2s1 -11.8%
CCC(Sc1nc2nccnc2c(=O)n1Cc1ccc(C)cc1)C(=O)NC1CCCCC1 (stereo unspecified) -17.5%
CCOc1ccc(S(=O)(=O)Nc2ccc(-c3ccc(OC)nn3)cc2)cc1 -14.7%
Cc1cccc(-n2c(SCC(=O)c3ccccc3)nnc2-c2ccc(Br)cc2)c1 -6.78%
Cc1ccc(Cl)cc1NS(=O)(=O)c1cc2c3c(c1)CC(=O)N3CCC2 -11.7%
Cc1c2cnn(-c3ccccc3)c(=O)c2c(C)n1CC(=O)NCc1ccccc1 -14.5%
CCCNC(=O)N1CCN(S(=O)(=O)c2ccc3c(ccn3C)c2)CC1 -29.3%
COc1cc2c(c(OC)c1)C(c1cc(OC)c(OC)c(OC)c1)CC(=O)N2 (stereo unspecified) -12.7%
Cc1ccc(CNC(=O)Cn2c(=O)n(-c3cccc(Cl)c3)c(=O)c3sc4ccccc4c32)cc1 -15.4%
CCOc1ccc(-c2cc3nc(C4CCN(C(=O)OC(C)(C)C)CC4)c(C(=O)Nc4ccc(C)cc4C)cn3n2)cc1 5%
COc1ccccc1N1CCN(C(=O)c2cc3ccc4ccc(C)[nH]c4c3n2)CC1 -16.2%
CCOC(=O)C1CCCN(S(=O)(=O)c2csc(C(N)=O)c2)C1 (stereo unspecified) -29.7%
Cc1ccc2c(c1)-c1c(cnn1CC(=O)Nc1ccccc1C#N)CO2 -19.7%
CC(=O)N1CCCc2cc(S(=O)(=O)N3CCCC(C(=O)N4CCN(c5cc(C)ccc5C)CC4)C3)ccc21 (stereo unspecified) -52.2%
Cc1ccc(OC(=O)CSc2nnc(CNC(=O)c3ccccc3)o2)cc1 2.92%
Cc1ccc(C(=O)COC(=O)CCC(=O)Nc2ccc(Oc3cc(C)ccc3C(C)C)cc2)cc1 -20.7%
CCc1ccc(C2=NN(CCC(=O)NCCc3ccc(Cl)cc3)C(=O)CC2)cc1 -19%
O=C(NCC(c1ccccc1)c1ccccc1)c1nn(-c2ccccc2F)nc1CO -37.3%
Cc1ccc(CCNC(=O)CCSCc2ccccc2Cl)cc1 -6.27%
CCCn1c2ccccc2c2cnn(CC(=O)NC(CCSC)C(=O)OC)c(=O)c21 (stereo unspecified) -8.74%
CCOC(=O)c1nnc2c(-c3ccc(Cl)cc3)c(C)nn2c1C -12.7%
Cc1c(C(=O)NCCN(C)C)sc2nc3n(c(=O)c12)CCC3 -4.94%
C[C@@H]1C[C@H]2[C@@H]3C[C@H](F)C4=CC(=O)C(Cl)=C[C@]4(C)[C@@]3(F)[C@@H](O)C[C@]2(C)[C@@]1(O)C(=O)CO -8.23%
COc1cc(NC(=O)c2c(C)oc3ncnc(N4CCCCC4)c23)cc(OC)c1 -17%
Cc1ccc2c(c1)c(=O)c1ccccc1n2CCCC(=O)Nc1c(F)cccc1F -10.2%
CCCS(=O)(=O)c1nc(S(=O)(=O)c2ccc(C)cc2)c(NCc2ccccc2)s1 -19.1%
